B1: OR4K15 (parent)
chain: GUUAACGGUCAUAGGCCAUGGAAACUAGGAGCACCAUUUCGCUGCCAGUGAAGAAAUGAACAAAGAAAAUCUGGGCCAGGCAGGCAUCAAAAGAAAUAGUCUUGCGCUCAACCAGAAAGUCUGUAAUCAUUUUAAGGGUA

The source gives no read counts; variants with many changes may rest on few reads.

Variants of B1 are the subject of the data set. The data set is described as follows: self-cleavage, relative activity (ratio to wild type); higher = more cleavage; in vitro, sequencing; the parent is a self-cleaving ribozyme.
With A82G A116G G138U, the self-cleavage was 0.42.
With U70C A126U U132C the figure was 0.77; with U87C U102C U132C, 1.37; with A89U A114G U132C, 0.23.
In the case of A89G U97C U132A A134G, the self-cleavage amounted to 0.85.
A91U U108A A117G A134U: the self-cleavage is 0.
For U70C A114U G137A, the self-cleavage is 0.01.
A82U A91G A117G: the self-cleavage turned out to be 0.12.
With A78U U103C U122C U132C the figure was 0.09; with C81U U100C A114U, 0.02; with U72C U100C A117G, 0.12.
With A91G A94U A111G, the self-cleavage is 0.04.
With A78G A118G A135U, the self-cleavage is 0.17.
As for A90G A98G A118G, the self-cleavage worked out at 0.05.
With U70C U87C U108A U132C the figure was 0.02.
In the case of U70G A82G U132C, the self-cleavage was 0.21.
To A90G A94G A98G U122A belongs 0.55; to G80C U108C A114U U122C, 0.04.
As to A82G U102A A111G, the self-cleavage is 0.03.
Turning to A89G A96G U133C, the self-cleavage came to 1.86.
With A92G A117G U120C G136A the figure was 0.11; with A86U A95G U108A, 0.05.
Take A92G A94G G137U: the self-cleavage was 1.6.
To A82G U97A A98G belongs 0.21.
With A82U A117G U132C the figure was 0.03; with A78U A82G U124A, 0.09; with A92G U102C A110G, 0.27.
To G80A A94U U102C U132A belongs 0.66; to A82G A116G A117G U133C, 0.12; to A86G U87C U100A G137A, 0.17.
As to A91G G99A A126G, the self-cleavage is 0.09.
Regarding A82U A118G U120A, the self-cleavage came to 0.13.
With A78G U100C A125G A129G G138U, the self-cleavage was 0.05.
In the case of G74A U102C U139A, the self-cleavage amounted to 0.24.
With A82U A111G U130C the figure was 0.01; with A78G A95G U132C, 0.15.
With U70C A90G U108C the figure was 0.02.
Take U87G C105U U122C G123A: the self-cleavage turned out to be 0.01.
As to U70C A111C U130C, the self-cleavage was determined as 0.01.
To U87A A111U A117G belongs 0.02.
To G83U A92U U124C belongs 0.37; to C85U A86G A94G U108A, 0.01; to U70A U87C A92U A110G A116G, 0.04.
With U70C G104U A110U the figure was 0.01.
With A92G G104A U130C, the self-cleavage amounted to 0.01.
For the variant A89G U103A A140U, the self-cleavage was found to be 0.32.
With A90G U103C U130C the figure was 0.17.
As for A78G U108A A116G U122C, the self-cleavage came to 0.
As to A78G A118G U127C, the self-cleavage came to 0.11.
With A91U A92U U130C A140U the figure was 0.78; with A69U A92G G115A, 0.09; with A82G U103C A117G, 2.26.
To U72C A96U U103C A116C U132C belongs 0.
With G73A U100C U102C U103A A129G the figure was 0.
With U70C A82U A111G A114G U122C, the self-cleavage was determined as 0.01.
With A78C U97C A117G, the self-cleavage turned out to be 0.22.
To U87A A92U U120C U133C belongs 1.17; to A78U A82G A111G, 0.05; to A86U A90G A135G, 1.53.
U70A U72A U127C: the self-cleavage amounted to 0.14.
With A90G A91G A94G A118G A125G the figure was 0.05; with A82U U127C U133C A134G, 0.1; with A89G A94G U131C, 1.13.
Consider A78U A114C A126G, for which the self-cleavage stood at 0.01.
As to C77U A91G A98G, the self-cleavage is 0.7.
Take A91G A96G A98G U124A U131C: the self-cleavage was 0.25.
To U72G A94G U97C U133C belongs 0.1; to A90G U108A U122C, 0.01.
Consider U72C U87C A91U C101G A114G, for which the self-cleavage is 0.45.
As for A89U A98G U103G A134G, the self-cleavage stood at 0.
In the case of A82G U87C A96U G137U, the self-cleavage turned out to be 0.43.
To C77U A78G A116G U131C belongs 0.03; to A90G A92G A96G, 0.1; to A89G A95G A134U, 1.11.
To U72C U108A A126G G136U belongs 0.03.
As for A86U A94G U102C, the self-cleavage was found to be 0.52.
With A86G A89G U139C the figure was 0.81.
Consider U87C G138A A140G, for which the self-cleavage is 0.91.
Turning to A92G C105U A117G, the self-cleavage is 0.22.
With A78G A114G A134G the figure was 0.13; with A78U U122C U132G, 0.05.
With U70G A89G A96G U108A, the self-cleavage stood at 0.01.
With A82G G83A A125U the figure was 0.37; with A90G U122A A126C, 0.15.
With A90G A96G U132G U133C the figure was 1.56.
With A82G A111G A129U the figure was 0.02; with U70C A95G A126C, 1.01.
Regarding U72C A78G U108C A114G, the self-cleavage came to 0.
To A78G A91G U122C belongs 0.15; to A86G A95G A114G A126G, 0.46.
For U72A A94G A135G, the self-cleavage worked out at 0.24.
To C85U A86G C121G belongs 0.45; to U87C U108C U122C, 0.02.
To G74U G84A A117G belongs 0.17; to G74A A78G A126G, 0.15.
Turning to U72A A92G A116G U127C U130C, the self-cleavage was determined as 0.03.
With A78C A94G U108C the figure was 0.01; with A89U A125U U130A, 1.39; with U70C A95G A96U, 1.34.
With A82U U87C A90C the figure was 0.15.
With C81U A96G U108G the figure was 0.02.
In the case of C85A U87C U103A A117G G123U, the self-cleavage came out at 0.2.
As to A78G A86G U87C A118U, the self-cleavage is 0.05.
As for G84A A95G A117G, the self-cleavage came out at 2.89.
For A82U U100C A116U, the self-cleavage is 0.05.
With A90G A94G U130C the figure was 0.92.
Turning to U70C A96G U122C, the self-cleavage stood at 0.07.
To A78G U87C A134G belongs 0.16; to A92G U100C A111G A114G, 0.02; to A92G A94G U108A, 0.01.
As to G80U A96G G123A A125G, the self-cleavage is 0.03.
To A92G A125G U133C belongs 0.3; to U87C U108C A126G, 0.01.
To G74A G115U U139A belongs 0.04; to A92G A117G A125G U130C, 0.18.
On to U72A C88U A94G, for which the self-cleavage came to 0.39.
To U87C U100C U133C belongs 2.47.
With A89G C107U U132C U133C the figure was 0.01; with A92G A94U U100C, 2.16; with A69U A118G G137A, 1.24.
On to A78U A82G G137A, for which the self-cleavage worked out at 0.08.
With A90G A116G U122C the figure was 0.11; with A78U A110G U122C, 0.04.
To A82G A94G A126G belongs 0.17; to U72A G106A G137A, 0.01.
As to U87C A94G A110G A116G U124C, the self-cleavage is 0.06.
Take U72C A96G U108C: the self-cleavage stood at 0.
To A78U A111G U130C belongs 0.01; to G75A G79C A95G A140G, 0.02; to U70C A116G U124A, 0.96.
To A91U A118G U127A belongs 1.26.
Consider U70C A92G U127C, for which the self-cleavage is 0.24.
For the variant A78U U122A U139C, the self-cleavage came to 0.27.
To A78U U100C A111G A114G belongs 0.01.
For U72A A78G G83U, the self-cleavage stood at 0.16.
Take A90G U100C U102A: the self-cleavage was determined as 1.96.
In the case of U72C U87C U130C, the self-cleavage was found to be 0.07.
To U87C C88U A117G belongs 2.76; to U72C C121A A140G, 0.6.
To A90G G123A A129U belongs 0.3.
In the case of U72A A111G U127C, the self-cleavage turned out to be 0.
For U70C U87C A111G, the self-cleavage amounted to 0.03.
With A86G A91G A117G the figure was 0.11.
With U87A A94G U127C, the self-cleavage was 1.8.
With A90G A118G A135G the figure was 0.41.
To C76U A96U A118G U120C U133C belongs 0.03; to U72C A98U U122C, 0.13.
For U72C A82U C112U A116G A117G, the self-cleavage is 0.
Consider A86G A89G A90G A126G, for which the self-cleavage was determined as 1.18.
In the case of A82G U103A U120A U127C U131C U139C, the self-cleavage amounted to 0.11.
Turning to A69G U120A U139C, the self-cleavage is 1.06.
Regarding A92G A98G U103A, the self-cleavage turned out to be 0.05.
To A69U A96G U108C belongs 0.02.
To U70C A86G A94G belongs 0.31; to U70C A82U G83A, 0.27; to A78G A89G U100C, 0.44.
To G75A U100C A117G U120A U130C U131C A140U belongs 0.1.
With U87C U100C U103A G137U, the self-cleavage was 1.6.
For C88U U100C U102A, the self-cleavage was 1.92.
On to U72A A92G A111U, for which the self-cleavage came to 0.02.
Regarding A91G U102A A116G A140U, the self-cleavage stood at 0.45.
With A90G A126G U130C the figure was 0.74; with U72C A78U A91G, 0.06; with A69U U103A A114G, 0.49.
To U87C U100C U130C belongs 2.41; to A86G A89G A114U, 0.05.
For the variant U72C A86G C109U, the self-cleavage was determined as 0.06.

These data come from the RNAGym collection of RNA variant scans (doi:10.7554/elife.90254).
